# Assay results reported in the antibiotic and cytotoxicity screens of Wong et al. (2023).
# The list shows a part of the results.
# Test system: HepG2
# Experiment: cytotoxicity call (relative viability < 0.9)
# Details: 10 µM
row,Compound,cytotoxicity call
1,NS(=O)(=O)c1ccc(NC(=S)NCCN2CCOCC2)cc1,inactive
2,C[C@@H]1CCCCO[C@H](CN(C)C(=O)c2ccccc2)[C@@H](C)CN([C@@H](C)CO)C(=O)c2cc(NC(=O)Nc3ccc(F)cc3)ccc2O1,inactive
3,O=C(C[C@@H]1CC=CC[C@H](NC(=O)OCC2c3ccccc3-c3ccccc32)C(=O)OCCNC1=O)NCCO,inactive
4,CCNC(=O)C[C@@H]1CC[C@H]2[C@@H](COC[C@@H](O)CN2C(=O)Nc2c(C)noc2C)O1,inactive
5,COc1ccccc1C#Cc1cnc2c(c1)C(=O)N([C@@H](C)CO)C[C@H](C)[C@H](CN(C)C(=O)c1ccc3c(c1)OCO3)O2,inactive
6,C[C@H]1CN([C@@H](C)CO)C(=O)c2cccc(NC(=O)Nc3ccc(C(F)(F)F)cc3)c2O[C@@H]1CN(C)Cc1ccc(Cl)c(Cl)c1,active
7,C[C@@H]1CCCCO[C@H](CN(C)C(=O)Nc2cccc3ccccc23)[C@H](C)CN([C@@H](C)CO)C(=O)c2cc(NC(=O)Nc3ccccc3)ccc2O1,inactive
8,C[C@H]1CN([C@@H](C)CO)C(=O)c2c(c3ccccc3n2C)-c2ccccc2CO[C@H]1CN(C)C(=O)Nc1ccccc1,inactive
9,COc1ccc(S(=O)(=O)N(C)C[C@@H]2OCc3cn(nn3)CCCC(=O)N([C@H](C)CO)C[C@@H]2C)cc1,inactive
10,C[C@H](CO)N1C[C@H](C)[C@H](CN(C)S(=O)(=O)c2ccc(Cl)cc2)Oc2ccc(NS(=O)(=O)c3cn(C)cn3)cc2C1=O,inactive

# Test system: S. aureus RN4220
# Experiment: growth inhibition call (relative growth <= 0.2)
# Details: 50 µM
row,Compound,growth inhibition call
1,COCC(=O)N1C[C@@H](C)[C@@H](OC)CN(C)C(=O)c2cc(NC(=O)c3cc(C)on3)ccc2OC[C@H]1C,inactive
2,C[C@@H]1CCCCO[C@H](CN(C)Cc2ccc(C(F)(F)F)cc2)[C@H](C)CN([C@@H](C)CO)C(=O)c2cc(N(C)C)ccc2O1,inactive
3,CCCCC(=O)OC1(C(=O)CO)C(C)CC2C3CCC4=CC(=O)C=CC4(C)C3(F)C(O)CC21C (stereo not given),inactive
4,C[C@@H]1CCCCO[C@H](CN(C)C(=O)Cc2ccccc2)[C@@H](C)CN([C@H](C)CO)C(=O)c2cc(NC(=O)CCC(F)(F)F)ccc2O1,inactive
5,COC(=O)/C=c1\sc2n(c1=O)CCN=2,inactive
6,CC(=O)Nc1cccc(S(N)(=O)=O)c1,inactive
7,COCC(=O)Nc1ccc2c(c1)OC[C@H](C)N(Cc1cccc(F)c1)C[C@@H](C)[C@H](OC)CN(C)C2=O,inactive
8,C[C@@H]1CCCCO[C@H](CN(C)C(=O)Nc2cccc3ccccc23)[C@@H](C)CN([C@H](C)CO)C(=O)c2cc(NS(=O)(=O)c3cn(C)cn3)ccc2O1,inactive
9,C[C@@H]1CN([C@@H](C)CO)C(=O)Cc2cc(NC(=O)CCN3CCOCC3)ccc2O[C@@H]1CN(C)S(=O)(=O)c1ccc(F)cc1,inactive
10,C[C@H]1CN([C@@H](C)CO)S(=O)(=O)c2ccc(C#Cc3cccc(F)c3)cc2O[C@@H]1CN(C)C(=O)CN1CCOCC1,inactive
11,C[C@@H]1CCCCO[C@H](CN(C)S(=O)(=O)c2cccs2)[C@@H](C)CN([C@H](C)CO)C(=O)c2cc(NC(=O)C3CCCCC3)ccc2O1,inactive
12,C[C@H]1CCCCO[C@H](CN(C)S(=O)(=O)c2ccc(Cl)cc2)[C@@H](C)CN([C@@H](C)CO)C(=O)c2cc(NS(=O)(=O)c3ccc(F)cc3)ccc2O1,inactive
13,COCCc1nc2c([nH]1)c(=O)n(C)c(=O)n2C,inactive
14,C[C@@H]1CN([C@H](C)CO)S(=O)(=O)c2ccc(Br)cc2O[C@H]1CN(C)CC1CCOCC1,inactive
15,C[C@@H]1CN([C@H](C)CO)C(=O)Cc2cc(NC(=O)Cc3ccccc3)ccc2O[C@H]1CN(C)S(=O)(=O)c1cccs1,inactive
16,COc1ccc(NC(=O)Nc2ccc3c(c2)CC(=O)N([C@@H](C)CO)C[C@H](C)[C@H](CN(C)C(=O)Nc2ccc(C(F)(F)F)cc2)O3)cc1,inactive
17,Cc1ccc(S(=O)(=O)N[C@H]2C=C[C@H](CC(=O)NCCN3CCCCC3)O[C@H]2CO)cc1,inactive
18,C[C@@H]1CN([C@@H](C)CO)C(=O)c2cc(NC(=O)Cc3ccccc3)ccc2O[C@@H](C)CCCCO[C@H]1CN(C)Cc1ccc(C(=O)O)cc1,inactive
19,Cc1noc(C)c1NC(=O)Nc1ccc2c(c1)CC(=O)N([C@H](C)CO)C[C@@H](C)[C@H](CN(C)S(=O)(=O)c1cn(C)cn1)O2,inactive
20,C[C@H](CO)N1C[C@H](C)[C@@H](CN(C)Cc2ccc(Oc3ccccc3)cc2)Oc2ccc(NC(=O)Cc3ccccc3)cc2C1=O,inactive

row,Compound,growth inhibition call
1,C[C@@H]1CCCCO[C@H](CN(C)C(=O)c2ccccc2)[C@@H](C)CN([C@@H](C)CO)C(=O)c2cc(NS(=O)(=O)c3cccs3)ccc2O1,inactive
2,COCC#Cc1ccc([C@@H]2[C@H](CO)N3C(=O)CN(C(=O)C4CCOCC4)C[C@@H]23)cc1,inactive
3,CC(C)NC(=O)Nc1ccc2c(c1)C(=O)N([C@H](C)CO)C[C@@H](C)[C@@H](CN(C)C(=O)Nc1ccccc1)OCCCC[C@@H](C)O2,inactive
4,CCOC(=O)[C@H]1C/C=C/C[C@H](C(=O)OCC)C(=O)O[C@H]2[C@@H](OC)O[C@H](CO)[C@@H](OC(=O)Nc3cccc(F)c3)[C@@H]2OC1=O,inactive
5,Cc1ccc(S(=O)(=O)N(C)C[C@@H]2Oc3ccc(NC(=O)Cn4cnnn4)cc3CC(=O)N([C@H](C)CO)C[C@@H]2C)cc1,inactive
6,O=c1c(O)c(-c2ccc(O)cc2)oc2ccccc12,inactive
7,C[C@@H]1CCCCO[C@@H](CN(C)S(=O)(=O)c2ccc(F)cc2)[C@H](C)CN([C@@H](C)CO)C(=O)c2cc(NS(C)(=O)=O)ccc2O1,inactive
8,CO[C@@H]1CN(C)C(=O)c2ccc(NS(=O)(=O)CC(F)(F)F)cc2OC[C@@H](C)N(C(=O)c2ccc3c(c2)OCO3)C[C@@H]1C,inactive
9,C[C@@H]1CN([C@@H](C)CO)C(=O)c2cc(C#CCc3ccccc3)cnc2O[C@@H]1CN(C)C(=O)C1CCOCC1,inactive
10,COCC#Cc1ccc2c(c1)O[C@H](CN(C)C(=O)c1ccccc1)[C@H](C)CN([C@H](C)CO)S2(=O)=O,inactive
11,NS(=O)(=O)c1ccc(NC(=S)NCCN2CCOCC2)cc1,inactive
12,C[C@@H]1CCCCO[C@H](CN(C)C(=O)c2ccccc2)[C@@H](C)CN([C@@H](C)CO)C(=O)c2cc(NC(=O)Nc3ccc(F)cc3)ccc2O1,inactive
13,O=C(C[C@@H]1CC=CC[C@H](NC(=O)OCC2c3ccccc3-c3ccccc32)C(=O)OCCNC1=O)NCCO,inactive
14,CCNC(=O)C[C@@H]1CC[C@H]2[C@@H](COC[C@@H](O)CN2C(=O)Nc2c(C)noc2C)O1,inactive
15,COc1ccccc1C#Cc1cnc2c(c1)C(=O)N([C@@H](C)CO)C[C@H](C)[C@H](CN(C)C(=O)c1ccc3c(c1)OCO3)O2,inactive
16,C[C@H]1CN([C@@H](C)CO)C(=O)c2cccc(NC(=O)Nc3ccc(C(F)(F)F)cc3)c2O[C@@H]1CN(C)Cc1ccc(Cl)c(Cl)c1,inactive
17,C[C@@H]1CCCCO[C@H](CN(C)C(=O)Nc2cccc3ccccc23)[C@H](C)CN([C@@H](C)CO)C(=O)c2cc(NC(=O)Nc3ccccc3)ccc2O1,inactive
18,C[C@H]1CN([C@@H](C)CO)C(=O)c2c(c3ccccc3n2C)-c2ccccc2CO[C@H]1CN(C)C(=O)Nc1ccccc1,inactive
19,COc1ccc(S(=O)(=O)N(C)C[C@@H]2OCc3cn(nn3)CCCC(=O)N([C@H](C)CO)C[C@@H]2C)cc1,inactive
20,C[C@H](CO)N1C[C@H](C)[C@H](CN(C)S(=O)(=O)c2ccc(Cl)cc2)Oc2ccc(NS(=O)(=O)c3cn(C)cn3)cc2C1=O,inactive
